In article PMC9911399, “Two distinct binding modes provide the RNA-binding protein RbFox with extraordinary sequence specificity”:
Where a chain is given by its changes, count along the chain named. The list shows a part of the results.

T1: RBFOX1 RRM (Homo sapiens, UniProt Q9NWB1 109-208)
T1 sequence: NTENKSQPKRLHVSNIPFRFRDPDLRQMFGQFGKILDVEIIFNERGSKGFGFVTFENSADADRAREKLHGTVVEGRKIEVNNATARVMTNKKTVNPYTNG

B1: UAAAUCG (DNA:RNA)
RNA: GGGAGACCGGAAUUCAGAUUGUCCUAAAUCGUUAAAUCCCGUCGUAGCCACCA
DNA 1: CAATCTGAATTCCGGTCTCCC
DNA 2: TGGTGGCTACGACGGGATT
B2: GUCUCAC (DNA:RNA)
RNA: GGGAGACCGGAAUUCAGAUUGUCCGUCUCACUUAAAUCCCGUCGUAGCCACCA
DNA 1: CAATCTGAATTCCGGTCTCCC
DNA 2: TGGTGGCTACGACGGGATT
B3: ACUCGCC (DNA:RNA)
RNA: B2 RNA with G25A, U26C, C27U, U28C, C29G, A30C
DNA 1: CAATCTGAATTCCGGTCTCCC
DNA 2: TGGTGGCTACGACGGGATT
B4: UGUAGGU (DNA:RNA)
RNA: B1 RNA with A26G, A27U, U29G, C30G, G31U
DNA 1: CAATCTGAATTCCGGTCTCCC
DNA 2: TGGTGGCTACGACGGGATT
B5: ACUCGAU (DNA:RNA)
RNA: B2 RNA with G25A, U26C, C27U, U28C, C29G, C31U
DNA 1: CAATCTGAATTCCGGTCTCCC
DNA 2: TGGTGGCTACGACGGGATT
B6: AACCGCG (DNA:RNA)
RNA: B1 RNA with U25A, A27C, A28C, U29G
DNA 1: CAATCTGAATTCCGGTCTCCC
DNA 2: TGGTGGCTACGACGGGATT
B7: CGGGGCU (DNA:RNA)
RNA: B1 RNA with U25C, A26G, A27G, A28G, U29G, G31U
DNA 1: CAATCTGAATTCCGGTCTCCC
DNA 2: TGGTGGCTACGACGGGATT
B8: AUUCAAU (DNA:RNA)
RNA: B2 RNA with G25A, C27U, U28C, C29A, C31U
DNA 1: CAATCTGAATTCCGGTCTCCC
DNA 2: TGGTGGCTACGACGGGATT
B9: CCCUUGC (DNA:RNA)
RNA: B2 RNA with G25C, U26C, C29U, A30G
DNA 1: CAATCTGAATTCCGGTCTCCC
DNA 2: TGGTGGCTACGACGGGATT
B10: AGUUCUC (DNA:RNA)
RNA: B2 RNA with G25A, U26G, C27U, A30U
DNA 1: CAATCTGAATTCCGGTCTCCC
DNA 2: TGGTGGCTACGACGGGATT
B11: CACGCGC (DNA:RNA)
RNA: B2 RNA with G25C, U26A, U28G, A30G
DNA 1: CAATCTGAATTCCGGTCTCCC
DNA 2: TGGTGGCTACGACGGGATT
B12: ACUUAUG (DNA:RNA)
RNA: B2 RNA with G25A, U26C, C27U, C29A, A30U, C31G
DNA 1: CAATCTGAATTCCGGTCTCCC
DNA 2: TGGTGGCTACGACGGGATT
B13: UGGACAU (DNA:RNA)
RNA: B2 RNA with G25U, U26G, C27G, U28A, C31U
DNA 1: CAATCTGAATTCCGGTCTCCC
DNA 2: TGGTGGCTACGACGGGATT
B14: GAGCAUU (DNA:RNA)
RNA: B2 RNA with U26A, C27G, U28C, C29A, A30U, C31U
DNA 1: CAATCTGAATTCCGGTCTCCC
DNA 2: TGGTGGCTACGACGGGATT
B15: AUUUUUG (DNA:RNA)
RNA: B2 RNA with G25A, C27U, C29U, A30U, C31G
DNA 1: CAATCTGAATTCCGGTCTCCC
DNA 2: TGGTGGCTACGACGGGATT
B16: UAGAUAC (DNA:RNA)
RNA: B1 RNA with A27G, C30A, G31C
DNA 1: CAATCTGAATTCCGGTCTCCC
DNA 2: TGGTGGCTACGACGGGATT
B17: UUGACCG (DNA:RNA)
RNA: B1 RNA with A26U, A27G, U29C
DNA 1: CAATCTGAATTCCGGTCTCCC
DNA 2: TGGTGGCTACGACGGGATT
B18: GACAAGC (DNA:RNA)
RNA: B2 RNA with U26A, U28A, C29A, A30G
DNA 1: CAATCTGAATTCCGGTCTCCC
DNA 2: TGGTGGCTACGACGGGATT
B19: ACUAUGG (DNA:RNA)
RNA: B1 RNA with U25A, A26C, A27U, C30G
DNA 1: CAATCTGAATTCCGGTCTCCC
DNA 2: TGGTGGCTACGACGGGATT
B20: AGGGGCU (DNA:RNA)
RNA: B1 RNA with U25A, A26G, A27G, A28G, U29G, G31U
DNA 1: CAATCTGAATTCCGGTCTCCC
DNA 2: TGGTGGCTACGACGGGATT

target: T1, RBFOX1 RRM; assay: EMSA; HiTS-Eq, 1 nM pool, 10 min; buffer printed only for the single-RNA assays: 10 mM Tris pH 7.5, 150 mM NaCl, 3.4 mM EDTA, 0.001% NP-40, 30 C; conditions: tags: His6 N-terminal (pET28a); label: 5' 32P
Outline: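 Purified wild-type or mutant RbFox RRM at increasing concentrations was equilibrated with 1 nM of 5′-radiolabelled RNA carrying 7 randomized nucleotides for 10 min in 50 µL. Unbound RNA was separated by 8% native PAGE and sequenced. Relative association constants came from read-count changes of each RNA species compared with the control reaction, normalised to the cognate motif.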

Binder | binding signal
B1 | 0.00678 KA relative to UGCAUGU
B2 | 0.0111 KA relative to UGCAUGU
B3 | 0.00741 KA relative to UGCAUGU
B4 | 0.0104 KA relative to UGCAUGU
B5 | 0.0039 KA relative to UGCAUGU
B6 | 0.0018 KA relative to UGCAUGU
B7 | 0.0294 KA relative to UGCAUGU
B8 | 0.00202 KA relative to UGCAUGU
B9 | 0.0115 KA relative to UGCAUGU
B10 | 0.0138 KA relative to UGCAUGU
B11 | 0.00896 KA relative to UGCAUGU
B12 | 0.0082 KA relative to UGCAUGU
B13 | 0.0171 KA relative to UGCAUGU
B14 | 0.0186 KA relative to UGCAUGU
B15 | 0.0181 KA relative to UGCAUGU
B16 | 0.00753 KA relative to UGCAUGU
B17 | 0.0188 KA relative to UGCAUGU
B18 | 0.0124 KA relative to UGCAUGU
B19 | 0.00554 KA relative to UGCAUGU
B20 | 0.0239 KA relative to UGCAUGU
